# Test results as given in PubChem BioAssay AID463173 (ICCB-Longwood Screening Facility, Harvard Medical School, 2010).
# Out of some 52,000 compounds screened, about 4,300 (8.3%) were called active. No stated cut-off is given here; in the data, active means survival mostly below about 52% (no sharp cut-off); inactive means mostly above about 56%. The list shows a part of the results.
# System: DeltatarO mutant
# Experiment: growth inhibition of S. aureus wild type versus tarO mutant, primary screen, teichoic acid synthesis inhibitors, RN4220, OD600 (AID 463173)
# Details: OD600, 18 h, stronger effect = lower value, screened at 18.75 µg/mL (by protocol)
row,Compound,survival
1,Cn1nc(-c2ccccc2)c(-c2ccccc2)c(C(=O)Nc2ccc(S(N)(=O)=O)cc2)c1=O,active: 49%
2,Cc1cccc(-n2c(SCC(=O)Nc3ccccc3Cl)nc3n[nH]c(C)c3c2=N)c1,inactive: 88%
3,COc1ccc(CC(=O)N2CC(=O)Nc3ccc(Br)cc3C2c2ccc(F)cc2)cc1OC (centres undefined),inactive: 175%
4,CCc1c(C)nc2cc(-c3ccc(OC)c(OC)c3)nn2c1NCC(C)(C)CN(C)C,inactive: 98%
5,CCOc1ccc(Nc2c(S(=O)(=O)c3ccc(C)cc3)cnc3ccc(OC)cc23)cc1,inactive: 59%
6,C/C(=N\NC(=O)CCc1ccccc1)c1cccc(N)c1,inactive: 102%
7,COc1cc(C(=O)N2CCC(c3ccncc3)CC2)cc(OC)c1OC,inactive: 88%
8,COc1cccc(CNC(=O)c2cc(-c3cccs3)nc3ccccc23)c1,inactive: 66%
9,COCCCNC(=O)CSc1nc2nc(C)c(Cc3ccccc3Cl)c(C)n2n1,inactive: 61%
10,CC(=O)N1CCCc2cc(S(=O)(=O)NCc3ccc(N(C)C)cc3)ccc21,inactive: 87%
11,Cc1cc(C)nc(Nc2nc3ccccc3s2)n1,inactive: 55%
12,Cc1ccc(C)c(N2CCN(C(=O)C(C)n3nc(C)c4sc5ccccc5c4c3=O)CC2)c1 (centres undefined),inactive: 110%
13,COc1cccc(-n2cc(C(=O)NCCc3cccc(C)c3)c3ccccc3c2=O)c1,inactive: 79%
14,COC(=O)c1ccc(NC(=O)N2CCc3c([nH]c4ccccc34)C2c2ccc(C)cc2)cc1 (centres undefined),inactive: 129%
15,CC(C)(Oc1ccc(Cl)cc1)C(=O)Nc1ccc(Cl)cn1,inactive: 72%
16,CCOc1ccc(NC(=O)CN2C(=O)CCSc3ccc(S(=O)(=O)N4CCCC4)cc32)cc1,inactive: 80%
17,COc1ccc(C(c2nnnn2C(C)(C)C)N2CCN(c3ccccc3)CC2)cc1 (centres undefined),inactive: 92%
18,CSc1ccc(CCNC(=O)c2sc3ncccc3c2-n2cccc2)cc1,inactive: 93%
19,O=C(NCC(c1cccnc1)N1CCOCC1)C(=O)Nc1cccc(Cl)c1 (centres undefined),inactive: 78%
20,CCOc1ccc(NC(=O)CSc2nc3nc(C)c(Cc4ccccc4)c(C)n3n2)cc1,inactive: 89%
21,COc1cc(C(=O)NCC(c2ccc(N(C)C)cc2)N2CCCC2)cc(OC)c1OC (centres undefined),inactive: 66%
22,COc1ccc(/C=C(\C#N)c2nc(-c3ccc(Cl)c(Cl)c3)cs2)cc1OC,inactive: 72%
23,CCc1ccc(NC(=O)CSc2nc(=O)n(Cc3cccnc3)c3c2CCC3)cc1,inactive: 95%

row,Compound,survival
1,O=C(COc1ccccc1F)NC1CC(=O)N(c2ccc3c(c2)OCCO3)C1 (centres undefined),inactive: 68%
2,Cc1ccc(-c2nc3ccc(Br)cn3c2Nc2ccc3c(c2)OCO3)o1,inactive: 71%
3,CCc1ccccc1NC(=O)CSc1nc2c(oc3ccccc32)c(=O)n1-c1ccccc1,inactive: 62%
4,CC(C)c1cc2cc(/C=C/C(=O)O)c(O)cc2o1,inactive: 60%
5,COc1ccccc1CNC(=O)C1CCN(c2nn3c(=O)cc(C)nc3s2)CC1,inactive: 74%
6,CCC1CCCCN1CCCNC(=O)c1cc2c(Cl)nc3ccc(C)cc3c2s1 (centres undefined),inactive: 67%
7,CCC1CCCCN1CCCNC(=O)c1ccc2c(c1)N(Cc1cccc(C)c1)C(=O)c1ccccc1S2(=O)=O (centres undefined),inactive: 128%
8,Cc1c2cnn(CC(=O)NCCc3ccccc3)c(=O)c2c(C)n1Cc1ccccc1Cl,inactive: 81%
9,COc1ccc(Cn2c(=O)c3oc4ccccc4c3n(CC(=O)Nc3cc(C)cc(C)c3)c2=O)cc1,inactive: 62%
10,COc1ccc(S(=O)(=O)n2nc(C)c(S(=O)(=O)N3CCCCCC3)c2C)cc1OC,active: 6%
11,CCOC(=O)c1c(C)oc2ncnc(NCCCN3CCN(c4cc(C)ccc4C)CC3)c12,inactive: 101%
12,COc1ccc(-c2c3c(nc4sc(C(=O)Nc5ccc(F)cc5)c(N)c24)CC(C)(C)CC3=O)cc1,inactive: 56%
13,CCCOc1ccc(C(=O)N(Cc2cccs2)c2ccc(C)cc2)cc1,inactive: 70%
14,CCOC(=O)c1ccc(NC(=O)C2CCN(C(=O)N3CC(C)Oc4ccc(C)cc43)CC2)cc1 (centres undefined),inactive: 62%
15,O=C(CCCN1CCOCC1)c1ccc2c(c1)OCCO2,inactive: 70%
16,COc1ccccc1N1CCN(C(=O)c2cnn(-c3ccc(C)c(C)c3)c2C2CCN(C(=O)OC(C)(C)C)CC2)CC1,inactive: 80%
17,Cc1ccc(N2CCN(C(=O)NCc3noc4ccccc34)CC2C)cc1 (centres undefined),active: 30%
18,Cc1cccc(C(=O)Nc2ccc(-c3nc4cc(C(C)C)ccc4o3)cc2)c1,active: 34%
19,O=C1CC(c2nnc(Cc3ccc(Cl)cc3)o2)CN1c1ccccc1 (centres undefined),inactive: 124%
20,CCn1c(=N)c(C(=O)NC2CCCCC2)cc2c(=O)n3cccc(C)c3nc21,inactive: 143%
21,O=c1cc2nc(-c3cccs3)nc(SCCOc3ccc(Cl)cc3)n2[nH]1,inactive: 80%
22,Cc1ccc(C)c(Cn2c(=O)n(Cc3ccc(C(=O)NC4CCN(Cc5ccccc5)CC4)cc3)c(=O)c3ccccc32)c1,inactive: 79%
23,CC(=O)c1cccc(NC(=O)CSc2nnc3ccc(-c4ccc(C)cc4)nn23)c1,inactive: 82%

row,Compound,survival
1,O=S(=O)(NCCc1csc2nc(-c3ccc(Cl)cc3)nn12)c1ccc(Oc2ccccc2)cc1,inactive: 73%
2,Cc1ccccc1-c1nc(C(N)=O)c2c(n1)n(-c1ccc3c(c1)OCO3)c(=O)n2C,inactive: 63%
3,Cc1nnc2c(Nc3ccccc3I)nc3nonc3n12,inactive: 77%
4,O=C(NCc1ccco1)C1CCN(C(=O)N2CCOc3ccc(Cl)cc32)CC1,inactive: 50%
5,CN(C)S(=O)(=O)c1ccc2c(c1)N(CC(=O)NCc1cccc(Br)c1)C(=O)CS2,inactive: 84%
6,COc1cccc(CNC(=O)CN2C(=O)CCCc3ccccc32)c1OC,inactive: 102%
7,CCOc1ccc(OCC)c(NC(=O)C(NS(=O)(=O)c2ccc(Br)s2)c2ccccc2)c1 (centres undefined),inactive: 73%
8,Cc1ccc(C)c(CN2C(=O)c3ccccc3S(=O)(=O)c3ccc(C(=O)N4CCCC4)cc32)c1,inactive: 57%
9,CCc1ccc(NC(=O)c2ccc3oc(=O)n(Cc4ccccc4)c3c2)cc1,active: 6%
10,Nc1c(-c2nc(-c3cccs3)no2)nnn1-c1cccc(F)c1,inactive: 75%
11,CCN(c1ncnc2c1cnn2-c1cc(Cl)ccc1C)C1CCCCC1,inactive: 73%
12,Cc1ccc(O)c(NC(=O)c2noc3c2CCCCC3)c1,inactive: 59%
13,COc1cccc(-n2cc(C(=O)Oc3cccc(C(F)(F)F)c3)c3ccccc3c2=O)c1,inactive: 107%
14,CC(=O)N1c2ccccc2CC1C(=O)N1CCN(c2cccc(Cl)c2)CC1 (centres undefined),inactive: 85%
15,Cc1ccc(-c2cn3c(n2)sc2cc(C(=O)NCc4cccs4)ccc23)cc1,inactive: 78%
16,Oc1cccc(N=Cc2c[nH]c3ccccc23)c1,inactive: 106%
17,CCCCNC(=O)Cn1c(=O)cc(C)c2c(C)nn(-c3ccc(CC)cc3)c21,inactive: 55%
18,CCC1CN(C(=O)N2CCC(C(=O)NCCc3ccc(C)cc3)CC2)c2ccccc2O1 (centres undefined),inactive: 79%
19,O=C(CCc1nnc2n(Cc3ccccc3Cl)c(=O)c3ccccc3n12)Nc1ccc(F)c(F)c1,inactive: 92%
20,CCOCCCNC(=O)CCC(=O)NNc1nc2ccccc2c2nc(-c3ccccc3)nn12,inactive: 83%
21,Cc1oc(-c2ccccc2)nc1CSc1nnc(C)n2c1cc1sccc12,inactive: 68%
22,CCc1c(C)nc2c(OC)cccc2c1Cl,inactive: 92%
23,CCOC(=O)CSc1nc2c(sc3ccccc32)c(=O)n1Cc1ccc(C)cc1,inactive: 96%

row,Compound,survival
1,CC(=O)NCCNc1nc2c(-c3ccc(C)cc3)nnn2c2ccccc12,inactive: 79%
2,CCc1sc(Nc2ccc(C)cc2Br)nc1-c1cc2cccc(OC)c2oc1=O,inactive: 89%
3,CCCN(CCC)C(=O)Cn1c(=O)n(-c2ccc(C)cc2)c(=O)c2ccc(C(=O)NCc3ccccc3Cl)cc21,inactive: 80%
4,CNC(=O)C1CCN(Cc2cc3ccccc3n2Cc2ccccc2C)CC1,inactive: 78%
5,COCCNC(=O)C(=O)NCC(c1cccnc1)N1CCN(c2ccccc2OC)CC1 (centres undefined),inactive: 64%
6,Cc1ccc(CSc2ccc(-c3cccs3)nn2)cc1,inactive: 89%
7,O=C(Cn1ncc2c3ccccc3n(Cc3ccccc3F)c2c1=O)NC1CCCCCC1,inactive: 84%
8,O=C(NCc1ccccc1Cl)c1cc2c(s1)-c1ccccc1SC2,inactive: 65%
9,CC(C)(C)NC(=O)c1cnn(-c2ccccc2)c1C1CCN(C(=O)OC(C)(C)C)CC1,inactive: 78%
10,O=S(=O)(Nc1cccc(-c2ccc(N3CCCCCC3)nn2)c1)c1ccccc1F,inactive: 90%
11,CC1(C)CC(=O)C(C=NCCCN2CCCC2=O)=C(O)C1,inactive: 94%
12,CCC(=O)Nc1ccccc1-c1nc2ccccc2n(CC(=O)c2ccc(C)c(C)c2)c1=O,active: 33%
13,Cc1ccccc1-c1nnc(CN2CCN(c3cccc(C)c3C)CC2)o1,inactive: 61%
14,Brc1ccc(-c2nnc3sc(CN4CCCCC4)cn23)cc1,inactive: 75%
15,COc1cccc(NC(=O)CSc2nc3c([nH]c4ccccc43)c(=O)n2-c2ccccc2)c1,inactive: 76%
16,CCOc1ccccc1NC(=O)CSc1nnc(N)s1,inactive: 104%
17,Cc1ccc(NC(=O)CSc2nnc(C)n3c2cc2sccc23)c(C)c1,inactive: 71%
18,CCCN1C(=O)c2[nH]nc(-c3ccccc3O)c2C1c1cccc(OCc2ccccc2)c1 (centres undefined),active: 8%
19,COc1ccc(OC)c(CNC(=O)c2cc3cc4ccc(OC)cc4nc3o2)c1,inactive: 83%
20,Cc1ccc(C(=O)/C=C/c2cn(CC(O)CN3CCc4ccccc43)c3ccccc23)cc1 (centres undefined),inactive: 73%
